The list shows a part of the results.

Among the data in PMC7819943, “Rice protein-binding microarrays: a tool to detect cis-acting elements near promoter regions in rice” are binding signal values, retold here.

The target in the assay is T1, OsWOX13 (Oryza sativa, UniProt Q5QMM3 1-267).
T1 sequence: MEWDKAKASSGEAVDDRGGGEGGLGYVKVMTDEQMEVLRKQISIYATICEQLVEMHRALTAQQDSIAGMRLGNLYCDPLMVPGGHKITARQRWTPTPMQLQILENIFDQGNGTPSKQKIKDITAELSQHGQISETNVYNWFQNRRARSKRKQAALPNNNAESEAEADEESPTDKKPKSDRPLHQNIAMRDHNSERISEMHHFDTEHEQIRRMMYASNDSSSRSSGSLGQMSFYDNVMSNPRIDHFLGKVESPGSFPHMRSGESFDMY
Put plainly: protein-binding microarray (RPBM); PBS, 2% BSA, 51.3 ng/ul salmon testes DNA, 50 uM zinc acetate, 200 nM TF, 25 C, 1 h; high values mean tight binding. As to conditions: protein: recombinant; tags: N-terminal polyhistidine and DsRed monomer fusion (pET32a); label: CyDye5-dUTP incorporated in the synthesized complementary strand; 3' TTTTT single-stranded linker to array surface; dsDNA, one strand shown. An outline of the steps: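 Transcription factors were each fused at the N-terminus to a polyhistidine tag plus DsRed and expressed in E. coli BL21-CodonPlus before Ni–NTA purification. Binding to a double-stranded custom Agilent array was carried out with 200 nM protein at 25 °C for 1 h in PBS, 2% BSA, salmon testes DNA and 50 µM zinc acetate. The binding signal is per-feature fluorescence intensity, in arbitrary units, on an Axon 4000B scanner.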
As for “TGCCACATCAATCAAAACAATCACTTGTACTGTCTCAGGACGGAGTCACCTAGTGCAG”, the binding signal is 24900 fluorescence intensity (a.u.). As to “TTTTCCAAATGTTTCCAATCAGCTTCTGTCTACTTTCTGACGGAGTCACCTAGTGCAG”, the binding signal was 7060 fluorescence intensity (a.u.). Turning to “AGAAAACAAAACTGATTTATGTCAAATTCTAGTGAGAATACGGAGTCACCTAGTGCAG”, the binding signal was 4270 fluorescence intensity (a.u.). Take “ATTTAGAATGATTGCAATCTATCCTAGTAAGATTTAGATTCGGAGTCACCTAGTGCAG”: the binding signal is 46800 fluorescence intensity (a.u.). Turning to “TGTGCAACTCAATCAATCCAAAACACGTCCCTTGTCATTCCGGAGTCACCTAGTGCAG”, the binding signal is 4430 fluorescence intensity (a.u.).

Take “TTGCAAAATTTAAAATTATGTTGTCATTTTAATATATTTGCGGAGTCACCTAGTGCAG”: the binding signal was 6150 fluorescence intensity (a.u.).

For the sequence “CATCGATCACCATTAGACTAATTTAGAGCTCTTGCTCGATCGGAGTCACCTAGTGCAG”, the binding signal is 6980 fluorescence intensity (a.u.). In the case of “GTATGATTTGTTAGTAGTCTTTATTTTGTGTTGATGTTTTCGGAGTCACCTAGTGCAG” it was 29300 fluorescence intensity (a.u.); in that of “CCTAATGATCGATCCTTCCCACGTTCGAAGCTTCCCCTGTCGGAGTCACCTAGTGCAG”, 5110 fluorescence intensity (a.u.). “GCTTCAATCTGAACCATTCATTTTAACAGCTAACCAACTTCGGAGTCACCTAGTGCAG”: the binding signal is 4570 fluorescence intensity (a.u.). For “GTGATTTGTTAATTGTTTCGCATTGTTCAATGTTAGTACACGGAGTCACCTAGTGCAG”, the binding signal was 36500 fluorescence intensity (a.u.). “ATCAATTTAATCTTATATAATGGAGCCAAATAAGCCCATACGGAGTCACCTAGTGCAG”: the binding signal was 6630 fluorescence intensity (a.u.). As to “GTACACACGCCCTGCCAAATTGACTGACCGCATCCTCGTCCGGAGTCACCTAGTGCAG”, the binding signal is 3730 fluorescence intensity (a.u.). In the case of “AAAGGGTTAATTTGTCAAATTTTCGGGCTTTAGTGAAAAGCGGAGTCACCTAGTGCAG”, the binding signal was 12700 fluorescence intensity (a.u.).

Consider “TAGATTAGCTTATCAATGATTTGTTGCAAAATATCACACGCGGAGTCACCTAGTGCAG”, for which the binding signal is 31300 fluorescence intensity (a.u.).

Take “AATAATTACTTATTATACTATTAATATATGGTCTCACCTGCGGAGTCACCTAGTGCAG”: the binding signal was 23300 fluorescence intensity (a.u.). In the case of “GTGAAATTGAGAGACAGGAGATGAACTTACTCCTTTCTTCCGGAGTCACCTAGTGCAG” it was 10800 fluorescence intensity (a.u.). For the sequence “TTTCACAAATTGAAGCCCGGTGTGTTTAACCCCATAGCCACGGAGTCACCTAGTGCAG”, the binding signal is 17600 fluorescence intensity (a.u.). “TGATAGATTAAAATATGTGCTAATTTATAGTTGTGTTATACGGAGTCACCTAGTGCAG”: the binding signal is 3610 fluorescence intensity (a.u.). The same measure for “TTATGACTGAAATTTAGAATGGTTCAAATCTGAAACAGTCCGGAGTCACCTAGTGCAG”: 17400 fluorescence intensity (a.u.); for “GGTGTTCCTAATGACTTAATGACTTAATGTTAGATACCCTCGGAGTCACCTAGTGCAG”: 3190 fluorescence intensity (a.u.).

Consider “ATGCAATCAGACCAAATTTATGTCATTTGGTGAGAAATGACGGAGTCACCTAGTGCAG”, for which the binding signal was 7700 fluorescence intensity (a.u.). On to “TCATTATCTGATTAGTTTGTAATACTGTCTAACTCAGGAGCGGAGTCACCTAGTGCAG”, for which the binding signal was 11200 fluorescence intensity (a.u.). In the case of “TAACAATCATACTAATCATATCTATGCTAAGTATTACGCACGGAGTCACCTAGTGCAG” it was 14400 fluorescence intensity (a.u.); in that of “ATTCATTGATGAGGTTTGCGTTTCCAAGGCCATCTGCATCCGGAGTCACCTAGTGCAG”, 3290 fluorescence intensity (a.u.); in that of “AATTCAGATTGATGAATGCAATTGCAAGGACAAATATTGCCGGAGTCACCTAGTGCAG”, 40200 fluorescence intensity (a.u.). As for “TCAATTAATTTTATTCGATTCATAGCCTCGACATTACTAGCGGAGTCACCTAGTGCAG”, the binding signal is 12300 fluorescence intensity (a.u.). For “ATATGATAAATTAGTAGTGTAATTACATTACAACTTACATCGGAGTCACCTAGTGCAG”, the binding signal was 20400 fluorescence intensity (a.u.). In the case of “AGATGGATTACTAATCCACATTCCAGTTAGCAACGCATTGCGGAGTCACCTAGTGCAG” it was 3960 fluorescence intensity (a.u.); in that of “TTGATCAAACTCGTCAGTTAATCACCAGTTGGAACAAGATCGGAGTCACCTAGTGCAG”, 5650 fluorescence intensity (a.u.). The same measure for “AACCCTCAATCAATTCTGATGGCTCCAGAATGTGGAGTACCGGAGTCACCTAGTGCAG”: 27200 fluorescence intensity (a.u.); for “GATAAATTTAGATGTGGTAATCACATCTACCGTAGCACTTCGGAGTCACCTAGTGCAG”: 24700 fluorescence intensity (a.u.). As for “CTTCAAAATTAAATTTGAAAATCCAAATTTTAGCTTTAGCCGGAGTCACCTAGTGCAG”, the binding signal is 14400 fluorescence intensity (a.u.). For “AACAAAACAAATTACAGATTCTGCCAGGAAACTGTGAGACCGGAGTCACCTAGTGCAG”, the binding signal was 4810 fluorescence intensity (a.u.). With “TTAAATCTCAATCGTCATAATTTGGACCCATCACAATCTACGGAGTCACCTAGTGCAG”, the binding signal is 3250 fluorescence intensity (a.u.). Regarding “AGATAATGATTTGACATTAATTGTCTATTGAGTTCTAAAACGGAGTCACCTAGTGCAG”, the binding signal is 30400 fluorescence intensity (a.u.). With “TTATTGATTACTAAACTTTTATCAAGAAACAAGCATATGGCGGAGTCACCTAGTGCAG”, the binding signal is 30200 fluorescence intensity (a.u.). For the sequence “TACTATATAATTGCATTGTAGTTACACTATAACTATTACTCGGAGTCACCTAGTGCAG”, the binding signal was 5180 fluorescence intensity (a.u.). “ATCTATAATTAGAGAATGTTTACTATAGCATCACATAGGCCGGAGTCACCTAGTGCAG”: the binding signal is 27800 fluorescence intensity (a.u.). Take “TTAATTTTAAGATTGATTTTGAGATATTTTCAATGTAGTTCGGAGTCACCTAGTGCAG”: the binding signal is 42200 fluorescence intensity (a.u.). The same measure for “ACCATCAATCAATCGATCGATCGATCGCGTCGCCATCGGCCGGAGTCACCTAGTGCAG”: 28200 fluorescence intensity (a.u.); for “AATATAACAAGTTTTAATTATATATCTGAATAAGTGTAGTCGGAGTCACCTAGTGCAG”: 7920 fluorescence intensity (a.u.).
